Where a chain is given by its changes, count along the chain named.
T1: 組み換えヒトIL−17A (recombinant human IL-17A) (human, UniProt Q16552 20-155, limits assumed)
T1 construct: also called 可溶性IL−17A; ビオチニル化IL−17A (R&D 317-ILB)
T1 sequence: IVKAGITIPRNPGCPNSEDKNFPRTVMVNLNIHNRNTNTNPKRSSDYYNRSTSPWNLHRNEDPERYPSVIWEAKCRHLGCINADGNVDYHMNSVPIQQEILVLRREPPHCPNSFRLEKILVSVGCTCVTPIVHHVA

T2: グリコシル化ヒトIL−17A (glycosylated human IL-17A, made in-house in HEK EBNA cells) (human, UniProt Q16552 24-155, glycosylated (sites not given); biotinylated with NHS-PEO4-biotin in the lysate ELISA)
T2 sequence: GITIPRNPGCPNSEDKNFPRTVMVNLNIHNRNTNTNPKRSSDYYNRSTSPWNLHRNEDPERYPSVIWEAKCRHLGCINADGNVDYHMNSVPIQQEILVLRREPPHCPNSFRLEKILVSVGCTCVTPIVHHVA

B1: COVA804 (bispecific antibody, human IgG1, kappa)
heavy: QVQLQESGPGLVRPSQTLSLTCTVSGYSITSDHAWSWVRQPPGRGLEWIGYISYSGITTYNPSLKSRVTMLRDTSKNQFSLRLSSVTAADTAVYYCARSLARTTAMDYWGQGSLVTVSS[human IgG1 constant region not given here]
light: DIQMTQSPSSLSASVGDRVTITCRASQDISSYLNWYQQKPGKAPKLLIYYTSRLHSGVPSRFSGSGSGTDFTFTISSLQPEDIATYYCQQGNTLPYTFGQGTKVEIKRTVAAPSVFIFPPSDEQLKSGTASVVCLLNNFYPREAKVQWKVDNALQSGNSQESVTEQDSKDSTYSLSSTLTLSKADYEKHKVYACEVTHQGLSSPVTKSFNRGECGGGGSGGGGSGGGGSGVTLFVALYDYSARGQLDLSFHKGEKFQILSTHEYEDWWEARSLTTGETGYIPSNYVAPVDSIQ
notes: also called FynomAb
B2: COVA806 (bispecific antibody, human IgG1, kappa)
heavy: B1 heavy
light: B1 light with S241E, A242S, R243V, G244S, Q245W, L246S
notes: also called FynomAb
B3: 11L11-A09 (designed binder, not shown: small tags and cut ends)
chain: GVTLFVALYDYSRKSNLDLSFHKGEKFQILSTHEYEDWWEARSLTTGETGYIPSNYVAPVDSIQ

How the values were obtained:
[1] = target: T1, 組み換えヒトIL−17A (recombinant human IL-17A); test: ELISA; recombinant human IL-17A (1 ug/mL) coated, goat anti-human-HRP detection
[2] = target: T2, グリコシル化ヒトIL−17A (glycosylated human …); test: cell-based or functional assay

Binder	EC50 [1]	IC50; normal human dermal fibroblasts stimulated with IL-17A/TNFα: IL-6 in supernatant (ELISA) [2]
B1	1.02 nM	
B2	0.98 nM	
B3		66 nM

Reference: patent publication JP2017057201A (dated 2017)
